In article PMC7616177, “From structure to clinic: Design of a muscarinic M1 receptor agonist with the potential to treat Alzheimer’s disease” (Cell, 2021):

Molecular target: T1, M1/M4 W108A γ 12.1 StaR (Homo sapiens, UniProt P08173+P11229, A143L/A196T/A364L/F34A/K362A/L71A/S112A/S411A/T39A/T95A/V53L/W101A)
T1 construct: residues 1-95 of M4 fused to residues 88-438 of M1-receptor; residues 1-95 of the human M4-receptor (CHRM4, P08173) in place of M1 residues 1-87; expressed in transfected cells; host or cells: HEK293T (48 h transient transfection), membranes
T1 sequence (P08173 1-95 F34A/T39A/V53L/L71A limits assumed): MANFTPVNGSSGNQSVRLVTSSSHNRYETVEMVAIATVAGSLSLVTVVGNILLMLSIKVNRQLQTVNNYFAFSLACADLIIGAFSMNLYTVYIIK
T1 sequence (P11229 88-438 T95A/W101A/S112A/A143L/A196T/K362A/A364L/S411A limits assumed): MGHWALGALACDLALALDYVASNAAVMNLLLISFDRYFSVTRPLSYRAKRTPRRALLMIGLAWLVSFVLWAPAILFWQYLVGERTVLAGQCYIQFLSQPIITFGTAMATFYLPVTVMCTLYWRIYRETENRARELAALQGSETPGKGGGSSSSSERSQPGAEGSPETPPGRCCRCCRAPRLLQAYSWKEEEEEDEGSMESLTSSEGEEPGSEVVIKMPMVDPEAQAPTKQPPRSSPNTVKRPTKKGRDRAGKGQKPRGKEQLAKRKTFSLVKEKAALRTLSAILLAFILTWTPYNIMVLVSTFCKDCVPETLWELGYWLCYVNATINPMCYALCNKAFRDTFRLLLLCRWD
Test: StaR radioligand saturation binding in HEK293T membranes
Settings: HEK293T cell membranes, n = 3
Method: All experiments were performed in 96 well format over 2 h at room temperature using 5ug/well protein in a final volume of 400ul of assay buffer of the following composition: 20 mM HEPES, 100 mM NaCl and 10 mM MgCl2, pH 7.4 Binding reactions were terminated by rapid filtration through GF/B filters (Perkin Elmer, Boston, MA, USA) pre-soaked with 0.5% w/v PEI for 1 h. Filters were then washed 3 times with 1 mL ice-cold assay buffer. Dried filters were counted with UltimaGold scintillant (Perkin Elmer) using a Microbeta (Perkin Elmer, Boston, MA, USA). The specific bound counts (d.p.m.) were expressed as a percentage of the maximal binding observed in the absence of test compound (total) and non-specific binding determined in the presence of 10 μM atropine.
Affinity (KD) for [^3H] 77-LH-28-1 for each construct was determined in membranes by saturation binding assays, performed by incubating increasing concentrations of [^3H] 77-LH-28-1 in the absence or presence of 10μM atropine. Radioligand inhibition binding assays were performed by co-incubating membranes with increasing concentrations of test compounds and an approximate 5x concentration of the equilibrium dissociation constant (KD) concentration of [^3H]
Data was analyzed using PRISM (GraphPad). For saturation binding, non-specific and total binding data were analyzed to a one site binding model. […]

Q: For CCCCC1CCN(CCCN2C(=O)CCc3ccccc32)CC1 [Compound 77-LH-28-1], which Kd is on record?
A: The Kd was 60 ± 30 pM.
